Assay results taken from PubChem BioAssay AID1508624 (National Center for Advancing Translational Sciences (NCATS), 2021).
The whole screen tested about 48,000 compounds, of which about 120 (0.25%) were called active. Roughly 4% stayed inconclusive and do not appear here. The call rests on the fitted dose curve; in most records, active means well fitted activation curve with a large enough effect; inconclusive means small, poorly fitted or top-dose-only effect, or another doubt; inactive means no such curve, though single readings can be large or run the other way. The list shows a part of the results.

Assay: Primary qHTS for Identification of Small Molecule Activators of Huntingtin-Antisense Promoter Activity; further: nearly all actives have a fitted effect of over 55% in size
Details: HEK293 HTT-AS promoter firefly luciferase reporter, 24 h; series mostly up to 57.5 µM; activity change, positive = activation: at the top concentration
Outline: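 Luminescence was read after Dual-Glo reagent and a 10 min room-temperature incubation. Values were normalized to vehicle (0% activity) and zero RLU (-100% activity). Reporter HEK293 cells had been exposed to compounds (up to 57.5 uM final) for 24 h.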

Activity change, positive = activation, inactive:
CCOC(=O)c1ccccc1NC(=O)CSc1nc2ncccc2o1 -9.28%
CC1=C(c2ccc(C)cc2)S(=O)(=O)N=C1N1CCN(c2ccccc2)CC1 -2.67%
CNC(=O)c1cccc(-c2ccc3c(N4CCOC[C@H]4C)nc(N4CCOC[C@H]4C)nc3n2)c1 -27.5%
Cc1ccc(CSC2=Nc3ccccc3C3=NC(CC(=O)NC4CCCCC4)C(=O)N23)c(C)c1 (stereo not drawn) -1.19%
Cc1ccc(NS(=O)(=O)c2ccc3c4c(cccc24)C(=O)N3)c(C)c1 -19.7%
CN(Cc1ccccc1)S(=O)(=O)c1ccc(F)c(C(=O)Nc2ccccc2C(F)(F)F)c1 -19.2%
Cc1ccc(C(NC(=O)Cc2cccs2)C(=O)Nc2ccc(C(C)C)cc2)cc1 (stereo not drawn) 14%
Cc1cc(Nc2cccc(C(F)(F)F)c2)ncn1 -11.2%
O=C(COc1ccccc1)N(Cc1cccnc1)c1nc2ccc(Cl)cc2s1 25.1%
O=C(Nc1ccc(N2CCC(N3CCCCC3)CC2)c(C(=O)O)c1)c1ccccc1 17.8%
CNS(=O)(=O)c1cn(CC(=O)N2CCN(c3ccc(OC)cc3)CC2)cc1S(=O)(=O)NC -4.97%
COc1cccc(CNC(=O)CN2C(=O)CSc3ccc(S(=O)(=O)N(C)C)cc32)c1 4.78%
Cc1ccc(-c2nc3sccn3c2Nc2ccccc2C)cc1 -4.22%
CC1CCN(C(=O)c2cnn(-c3ccc(Cl)cc3)c2C2CCN(C(=O)OC(C)(C)C)CC2)CC1 -11.2%
Cc1c(C(=O)OC2CCCC2)[nH]c2c1C(=O)CC(c1ccc(C(C)(C)C)cc1)C2 (stereo not drawn) 1.9%
CC(C)(C)C1CCc2c(sc(NC(=O)c3cccc(Cl)c3)c2C(N)=O)C1 (stereo not drawn) -15.7%
CSCCC(NS(=O)(=O)c1ccc2c(c1)oc(=O)n2C)C(=O)N1CCN(c2cc(Cl)ccc2C)CC1 (stereo not drawn) -29.4%
CCC(=O)Oc1c(Sc2ccc(Cl)cc2)c(C)nn1C(C)(C)C -29%
COc1ccc(NC(=O)CSc2oc(-c3ccc(C)cc3)nc2S(=O)(=O)c2ccc(C)cc2)c(OC)c1 -5.78%
CCN(CCCNC(=O)c1cc2cc3cc(OC)ccc3nc2s1)c1cccc(C)c1 1.66%
Cc1cc2c(cc3c(SCc4ccc(Cl)cc4)nnc(C)n32)o1 -6.1%
Cc1cccc(N2CCN(C(=O)c3nn(C)c4c3CSc3ccccc3-4)CC2C)c1 (stereo not drawn) -10.3%
COC(=O)c1ccccc1NC(=O)c1cc2nc(-c3ccccc3)cc(-c3ccccc3)n2n1 -2.24%
Cc1ccccc1C(=O)NCC(c1cccnc1)N1CCc2ccccc21 (stereo not drawn) -16.8%
CCOC(=O)c1c(C)sc(-c2c(-c3ccc4c(c3)OCCO4)[nH]c3c2c(=O)[nH]c(=O)n3C)c1O -35.8%
COc1ccc(NC(=O)C2(c3cccs3)CCOCC2)cc1Cl -18.6%
COc1cccc(N2CCN(C(=O)c3c(C)oc4ncnc(N5CCCCC5)c34)CC2)c1 -29.3%
COC(=O)CCCCC(CCSS/C(CCO)=C(\C)N(C=O)Cc1cnc(C)nc1N)SC(C)=O (stereo not drawn) -3.75%
Cc1ccc(-c2nnc(Nc3ccc(O)cc3)c3ccccc23)cc1S(=O)(=O)NCc1nc2ccccc2[nH]1 11.8% [at 11.5 µM, percent change from vehicle, -100% = no light]
COc1cccc(-n2c(=O)c3sc4ccccc4c3n(CC(=O)Nc3ccc(F)cc3F)c2=O)c1 -15.6%
CC(C)CN(CCCNC(=O)CN1C(=O)COc2ccc(S(=O)(=O)N3CCCCCC3)cc21)CC(C)C -9.88%
O=C1CC(=O)Nc2cc(S(=O)(=O)N3CCOc4ccccc43)ccc2N1 -4.59%
COc1cc(NC(=O)CSc2nc(C)c(C(=O)Nc3ccccc3)c(-c3ccc(OC)c(OC)c3)c2C#N)c(OC)cc1Cl 0%
Cc1cc(Nc2sc(C(=O)c3ccc(F)cc3)c(N)c2C(=O)Nc2ccc(F)cc2)ccc1Cl -18.6%
COc1ccc(N2CC3=C(C2=O)C(c2ccc(Br)cc2)NC(=O)N3C)cc1 (stereo not drawn) -34.8%
Cc1ccc(Cl)cc1N1CCN(CCCNc2ncnc3onc(-c4ccc(F)cc4)c23)CC1 -18%
CC(C)NC(=O)c1ccc(Cn2c(=O)c3cccn3c3cccnc32)cc1 -10.4%
COc1ccc(CC(=O)NC2CC(=O)N(c3ccc4c(c3)OCCO4)C2)cc1 (stereo not drawn) -5.61%
Nc1c(C(=O)Nc2cccc(Cl)c2)sc2nc3c(cc12)CN(Cc1ccccc1)CC3 0.535%
CCOCCCn1c(=N)c(S(=O)(=O)c2ccc(C)cc2)cc2c(=O)n3ccccc3nc21 -4.27%
CCOC(=O)c1c(NC(=O)C(C)Sc2cn(CCNC(=O)c3ccc(OC)c(OC)c3)c3ccccc23)sc2c1CCC2 (stereo not drawn) -22.4%
O=C(CSc1nncn2c1cc1sccc12)Nc1ccccc1C(F)(F)F -37.2%
O=C(NCCC1=CCCCC1)c1ccc2c(c1)N(Cc1ccc(F)cc1)C(=O)c1ccccc1S2(=O)=O -17.1%
COc1ccc2nc3sc(C(=O)Nc4cc(Cl)c(OC)cc4OC)cc3cc2c1 3.14%
CCOC(=O)c1c(C)oc2nc(C)nc(NCc3ccc(C)cc3)c12 -10%
CCN1CCN(Cc2c(O)ccc3c(=O)c(Oc4ccccc4Cl)c(C(F)(F)F)oc23)CC1 -11%
CO[C@]1(NC(=O)CSC(F)F)C(=O)N2C(C(=O)O)=C(CSc3nnnn3CCO)CO[C@H]21 -5.66%
COCCCNc1nc2c(-c3ccccc3)nnn2c2ccccc12 -9.21%
Cc1cc(C)cc(NC(=O)CCc2nnc3n(CC(C)C)c(=O)c4ccccc4n23)c1 -3.52%
O=C1NC(=O)C(c2cnc3ccccn23)=C1c1cn2c3c(cccc13)CN(C(=O)N1CCOCC1)CC2 -18.9%
CC(C)N(Cc1ccccc1)C(=O)CN1C(=O)COc2ccc(S(=O)(=O)NC3CCCC3)cc21 -19.3%
Nc1cccc2c1CN(C1CCC(=O)NC1=O)C2=O (stereo not drawn)
Cc1ccc(NC(=O)CSc2nc3nccnc3c(=O)n2CCc2c[nH]c3ccccc23)cc1 -27.1%
CCOC(=O)c1ccc(OCCN2C[C@H](O)[C@@H](O)[C@H](O)[C@H]2CO)cc1 -1.54%
COc1cc(CNc2ccc3[nH]c(=O)[nH]c3c2)ccc1OCc1ccccc1F 2.53%
CCN(C(=O)CSc1nc2ccccc2n1CC(=O)Nc1ccccc1C)c1ccccc1 -7.55%
COc1ccc(-n2ccn(Cc3ccccc3Cl)c(=O)c2=O)cc1OC -4.39%
CCN(CC)S(=O)(=O)c1ccc(NC(=O)CCc2c(C)nc3cc(-c4ccc(Cl)cc4)nn3c2C)cc1 -89%
CN(C)c1ccc(C(CNS(=O)(=O)c2ccc(Br)cc2)N2CCCC2)cc1 (stereo not drawn) -14.4%
COc1ccc(Cl)cc1NC(=O)CSc1ccc(-c2sc(C)nc2C)nn1 -29%
CC(C)Cc1nn2c(=O)cc(COC(=O)c3ccc4c(c3)OCO4)nc2s1 1.19%
CCOC(=O)c1cc2c(=O)n3ccccc3nc2n(CCCOC)c1=NC(=O)C(C)(C)Oc1ccc(Cl)cc1 14.5%
CCOC(=O)c1c(C)[nH]c(CCC(=O)NCCCN2CCN(c3cc(C)ccc3C)CC2)c1C -40.7%
COc1ccccc1CNC(=O)CN1C(=O)CSc2ccc(S(=O)(=O)N(C)C)cc21 6.36%
CCOc1ccc(S(=O)(=O)N2CCN(c3ccc(Cl)c(Cl)c3)CC2)c2ccccc12 -1.48%
Cc1ccc(C)c(NC(=O)CSc2ncc3c(n2)-c2ccc(Cl)cc2N(C)S3(=O)=O)c1 -3.31%
CCCn1c(CCC(=O)Nc2cc(Cl)c(OC)cc2OC)nc2cccnc21 -7.43%
COc1ccc(NC(=O)CC2C(=O)N(c3ccc(C)cc3)C(=O)N2C2CCCCC2)cc1 (stereo not drawn) -8.46%
O=C(CCSCc1ccccc1Cl)N1CCN(c2cccc(Cl)c2)CC1 17.8%
CCn1nc(-c2ccccc2)c(-c2ccccc2)c(C(=O)Nc2nc(C)c(C(=O)N(C)C)s2)c1=O -7.16%
O=C(O)C1CCC1 -2.74%
CCc1nc2cccnc2n1-c1ccc(CC(=O)Nc2ccc(C)cc2)cc1 -16.1%
O=C(Cn1c(=O)n(-c2ccccc2Cl)c(=O)c2sc3ccccc3c21)N1CCCC1 -20.9%
CCOc1ccc(CNC(=O)c2cnc3sc(N(CC)CC)nn3c2=O)cc1OC -16.7%
CC(NC(=O)c1ccc2c(c1)N(Cc1ccc(Cl)cc1)C(=O)c1ccccc1S2(=O)=O)c1ccccc1 (stereo not drawn) -14.3%
CCOc1ccc(CCNC(=O)Cn2nc(CC)n3c(cc4sc(CC)cc43)c2=O)cc1OCC -10.3%
CCCCCn1c(=N)c(S(=O)(=O)c2ccccc2)cc2c(=O)n3ccccc3nc21 1.23%
CCn1c(=O)c2cc(C(=O)NC3CCCCCC3)sc2c2ccccc21 -27.2%
O=c1oc2c(CN3CCOCC3)c(O)ccc2cc1-c1ccc(Cl)cc1 26.2%
CCOC(=O)c1sc(NC(=O)c2nc3ncccn3n2)c(C(=O)OC)c1C -3.02%
O=S(=O)(NCc1ccccc1)c1ccc(-c2cnc(C3CC3)o2)cc1 -23.8%
CCc1ccc(CSc2nc(-c3ccc(OC)cc3)nc3c2Cc2c(CO)cnc(C)c2O3)cc1 -14.6%
COc1ccc(CNC(=O)CN(c2ccccc2OC)S(=O)(=O)c2ccc(C)cc2)cc1 -11.1%
COc1ccc(CNC(=O)CSc2nc3ccsc3c(=O)n2Cc2ccccc2Cl)cc1 -34.7%
CC(=O)Nc1ccc(O)cc1
CCc1ccc(N2C(=O)CC(c3cc(OC)ccc3OC)C3=C2COC3=O)cc1 (stereo not drawn) -24.3%
O=C(Nc1ccc2oc(-c3cccnc3)nc2c1)c1ccc(-c2ccc(Cl)cc2)o1 7.58%
Cc1ccc(NC(=O)Cn2ncn3c(cc4ccccc43)c2=O)c(C)c1 -15.6%
CCOc1ccc(C2CC(=O)n3nc(-c4ccc(C)cc4)nc3S2)cc1 (stereo not drawn) -5.38%
COc1ccccc1CNC(=O)Cc1csc2nc(-c3ccc(Cl)cc3)cn12 -12.9%
CCOc1cc(CNC(=O)c2ccc(C)c(NC(=O)c3nsc4ccccc34)c2)ccc1OC 7.11%
CCCn1c(SCC(O)c2cccc(OC)c2)nc2ccccc21 (stereo not drawn) -20.3%
COc1ccc(CNC(=O)c2nnn(CC(=O)Nc3cc(C)cc(C)c3)c2N)cc1 -19.5%
